# Data: publication PMC4336329 (PLoS ONE, 2015)
# Out of some 310,000 compounds screened, about 2,200 (0.71%) showed an effect of 50% or more. Effects have a minus sign here. Some of the results follow.
# Target: human ether-à-go-go-related gene (hERG) potassium channel (human, UniProt Q12809)
# Test: primary screen, population patch clamp on CHO cells stably expressing hERG
# human ether-à-go-go-related gene (hERG) potassium channel, sequence (Q12809 whole entry, looked up): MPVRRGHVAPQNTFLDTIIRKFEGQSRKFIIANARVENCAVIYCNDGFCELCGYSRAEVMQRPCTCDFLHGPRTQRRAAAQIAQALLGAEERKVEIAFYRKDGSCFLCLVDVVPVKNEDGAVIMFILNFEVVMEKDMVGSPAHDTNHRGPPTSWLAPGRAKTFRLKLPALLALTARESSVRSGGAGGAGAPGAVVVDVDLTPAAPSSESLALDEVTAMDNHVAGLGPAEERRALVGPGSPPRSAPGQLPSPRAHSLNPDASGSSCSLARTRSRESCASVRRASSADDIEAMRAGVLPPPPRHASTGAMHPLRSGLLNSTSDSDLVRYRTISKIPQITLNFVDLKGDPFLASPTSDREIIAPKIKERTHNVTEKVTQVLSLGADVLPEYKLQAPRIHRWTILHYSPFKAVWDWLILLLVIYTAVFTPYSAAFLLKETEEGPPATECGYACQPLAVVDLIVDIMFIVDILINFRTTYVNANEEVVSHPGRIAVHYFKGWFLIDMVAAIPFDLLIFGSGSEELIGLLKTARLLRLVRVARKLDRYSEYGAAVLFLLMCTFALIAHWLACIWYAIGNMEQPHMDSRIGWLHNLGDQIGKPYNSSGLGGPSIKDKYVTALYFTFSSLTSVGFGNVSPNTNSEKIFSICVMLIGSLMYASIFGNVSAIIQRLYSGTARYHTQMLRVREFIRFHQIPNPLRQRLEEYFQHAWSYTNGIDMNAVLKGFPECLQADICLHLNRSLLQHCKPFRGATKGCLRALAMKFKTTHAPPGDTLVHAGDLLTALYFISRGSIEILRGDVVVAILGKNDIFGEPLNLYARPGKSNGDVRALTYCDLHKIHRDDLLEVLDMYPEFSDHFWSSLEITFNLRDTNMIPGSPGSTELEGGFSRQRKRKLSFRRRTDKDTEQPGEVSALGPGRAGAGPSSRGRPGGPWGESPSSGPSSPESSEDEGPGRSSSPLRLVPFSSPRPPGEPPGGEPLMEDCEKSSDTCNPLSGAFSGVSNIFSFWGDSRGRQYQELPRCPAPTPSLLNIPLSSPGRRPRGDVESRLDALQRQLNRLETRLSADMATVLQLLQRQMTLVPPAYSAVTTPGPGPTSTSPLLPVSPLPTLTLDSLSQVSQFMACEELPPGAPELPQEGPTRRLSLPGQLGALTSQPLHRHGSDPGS
row,Structure (SMILES),"hERG current change (%, negative = inhibition) at 1uM [%]"
1,CCc1ccccc1N(CC(=O)NC1CCCCC1)C(=O)CNC(=O)c1ccco1,8.43
2,COc1cccc2cc(C(=O)Nc3ccccc3C(=O)N3CCOCC3)oc12,-2.75
3,Cc1c(S(=O)(=O)N(C)C2CCCCC2)c(=O)n(C)c(=O)n1C,4.71
4,CC1CCCCC1NC(=O)c1ccc(N2CCCC2=O)cc1 (centres unmarked),3.76
5,Cc1cccc(-c2nnc(SCC#N)n2-c2cccc(Cl)c2)c1,2.7
6,CCCn1ncc([C@@H]2C[C@H]3CN(Cc4cccc(Cl)c4)C(=O)[C@]34CCCN24)c1C,-8.01
7,COc1ccc(NS(=O)(=O)c2cccc3cccnc23)cc1,8.14
8,CCN(CC)C(=O)CSc1ncnc2c1cnn2Cc1ccccc1,-0.877
9,Oc1ccc(/C=N/NC(=S)NC2CC3CCC2C3)cc1 (centres unmarked),12.4
10,CC(C)(C)[C@@H]1C=C(C(=O)N2CCN(Cc3ccccc3)CC2)O[C@H](OCCCCO)C1,11.7
11,COc1ccccc1OCC(=O)N1CC2(C)CC1CC(C)(C)C2 (centres unmarked),5.05
12,COc1ccc2cc3cc(C(=O)NCCN4CCN(Cc5ccccc5)CC4)oc3nc2c1,-9.26
13,CC(=O)c1c(O)n(C2CCCCCC2)c(=O)[nH]c1=O,9.59
14,Cc1noc(C)c1CSCC(=O)N(C)CC(=O)Nc1ccc(F)c(F)c1F,21.5
15,COc1cccc(CN2C(=NC(=O)CCC3CCCC3)SC3CS(=O)(=O)CC32)c1 (centres unmarked),12.9
16,CN1CCN(/C=C2\SC(=S)NC2=O)CC1,12.8
17,CCc1nc2ccc(C(=O)NCCc3ccccc3OC)cc2nc1CC,7.22
18,COc1ccc(CNc2ccc3c(c2)nc(C)n3C)cc1,-9.96
19,O=C(N/N=C\c1ccccc1)c1cccc(C(=O)N/N=C\c2ccccc2)n1,7.86
20,Cc1nccn1CCC(=O)O.Cl,5.56

row,Structure (SMILES),"hERG current change (%, negative = inhibition) at 1uM [%]"
1,CCOC(=O)c1ccc(NC(=O)CSc2ccc(-c3ccccn3)nn2)cc1,2.65
2,CCOc1ccc(N(CC(=O)NCc2ccccc2)S(=O)(=O)c2c(C)noc2C)cc1,9.52
3,CCOC(=O)C1C(=O)OC(C)(C)C1C(C)C(=O)c1ccc(C)cc1 (centres unmarked),4.69
4,CC(O)[C@H]1CNC(=O)C(=O)N1CCCCC1CCCCC1 (some centres unmarked),12.3
5,Cl.NC1=NC(c2cccc(Cl)c2)N(CCc2ccc(F)cc2)C(N)=N1 (centres unmarked),14.8
6,CCOC(=O)N1CCN(CC(=O)Nc2nc3ccccc3s2)CC1,1.23
7,C=CCNC(=O)COC(=O)c1cc(S(=O)(=O)N2CCCCC2)ccc1Cl,9.82
8,NS(=O)(=O)c1ccc(CCNC(=O)[C@@H]2CCCN2S(=O)(=O)c2ccccc2F)cc1,-0.666
9,Cn1c(CN2CCCCC2)nc2cc([N+](=O)[O-])ccc21,-2.57
10,CC(C)Oc1ccc(NC(=O)Oc2ccccc2)cc1,5.56
11,Cc1ccc(Sc2ccc(/C=N/O)cc2[N+](=O)[O-])cc1,14.9
12,COc1ccccc1NCC(=O)N/N=C(\C)c1ccc(Br)s1,5.63
13,Cc1cccnc1NC(=S)NC(=O)/C=C/c1ccccc1,7.1
14,CN(CCOc1ccccc1)CCOc1ccccc1,5.27
15,CCCCCCCCCCCCN1[C@@H](CC(=O)OC)c2cc(F)ccc2S1(=O)=O,7.11
16,CC(C)CNC(=S)N1CCC(c2nc(-c3ccc(F)cc3)no2)CC1,3.85
17,COc1ccc(-c2nnc(SCCC(=O)O)n2-c2ccccc2)cc1,4.49
18,CCC(OC(=O)C1=Cc2ccccc2OC1)C(=O)NC1CCCC1 (centres unmarked),-0.674
19,Oc1ccc(-c2c(C3=CCCCC3)sc3ccccc23)cc1,13.2
20,O=C(O)/C=C\C(=O)O.S=C(NC1CCCCC1)N1CCC(c2cnc[nH]2)CC1,-3.21

row,Structure (SMILES),"hERG current change (%, negative = inhibition) at 1uM [%]"
1,COC(=O)c1ccccc1NC(=O)Nc1cccnc1,5.29
2,C=CCNc1nc(C)c(CNc2c(C)cc(C)cc2C)nc1C#N,7.83
3,CCN(CC(=O)NCc1ccc(F)cc1)CC(O)COCc1cccc(OC)c1 (centres unmarked),-14.5
4,Cn1c(=O)oc2cc(S(=O)(=O)Nc3cccc(C(=O)O)c3)ccc21,21.8
5,O=C(CN1CCOCC1)Nc1ccc([N+](=O)[O-])cc1Br,-11.7
6,CCn1c(SCC(=O)OC2CCCCC2)nc2ccccc2c1=O,-3.23
7,CCCCN1C(=O)C(O)(CC(=O)c2c(C)n[nH]c2C)c2cc(Br)ccc21 (centres unmarked),8.7
8,CSc1ccc(Cl)c(C(=O)N2CCOc3ccccc32)c1,1.03
9,Cc1cc(C)c(NC(=O)CNC(=O)CN2C(=O)NC3(CCCc4ccccc43)C2=O)c(C)c1 (centres unmarked),9.9
10,O=C(Cc1ccc(F)cc1)NCC1CCCO1 (centres unmarked),7.61
11,Nc1cccc2c1C(=O)N(c1ccccc1)C2=O,-2.75
12,CC(=O)c1ccc(NC(=O)CSc2cn[nH]n2)cc1,15.1
13,CC(C)Oc1cccc(C(=O)Nc2ncn[nH]2)c1,10.6
14,CCN(CC)S(=O)(=O)c1cccc(-c2nnc(SCC(=O)c3cc(C)n(C4CC4)c3C)o2)c1,15.4
15,COc1ccc(/C=N/NC(=O)CNC(=O)C2COc3ccccc3O2)cc1OC (centres unmarked),-2.79
16,CN1C2CCC1CC(OC(=O)c1cc(Cl)cc(Cl)c1)C2.Cl (centres unmarked),-26.4
17,COc1ccc(C2CC(=O)c3cc(OC)c(OC)cc32)cc1OC (centres unmarked),17.2
18,O=C1Nc2ccc(S(=O)(=O)N3CCCC3)c3cccc1c23,3.9
19,N#C/C(=C\c1ccc(O)c(O)c1)C(=O)Nc1ccccc1,11.8
